Measurements from PubChem BioAssay AID434955 (Southern Research Specialized Biocontainment Screening …, 2010).
The list shows a part of the results. Further columns of the screen follow, without active or inactive calls. Compounds called inactive in the main read-out are mostly missing here.

Experiment: beta-lactam sensitization of Mtb H37Rv, H37Rv (AID 434955);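 note: growth measured after seven days incubation then overnight dye step; 0% = bacteria only wells and 100% = bacteria with antibiotic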
Details: M. tuberculosis H37Rv growth with meropenem, percent inhibition; measured here: primary screen without meropenem; at 25 µM

Row | SMILES | inhibition
1 | Cc1c(CC(=O)O)c(=O)oc2c(C)c3occ(-c4ccc(Br)cc4)c3cc12 | -1.72%
